Source: PubChem BioAssay (Tox21)
Where “and” joins values, the source holds several entries; their conditions need not be identical. Equal values may be shown once. Inconclusive means that the source gave no clear call. Such entries were picked first, then a sample of the others. For some of these results: Potencies of inconclusive entries are doubtful fits and often do not repeat. Calls of active or inactive are those of the source. Calls come from the whole dose curve; as a rule, active = well fitted curve in the direction sought with a large enough effect in the repeat runs; inconclusive = weak or mixed curves; inactive = no such curve, though single readings can be large; an effect the other way counts as inactive or inconclusive.

Assays:
[1] = A CellTox Green Cytotoxicity Assay to monitor cytotoxicity in HepG2 cells - 32 hour (AID 1224883); note: nearly all actives have a fitted effect of over 50% in size
Outline: (§1)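 Cytotoxicity was tracked as dead-cell DNA fluorescence in HepG2 cells treated with test compounds at 37 C; each time-point value comes from one kinetic series spanning 0, 8, 16, 24, 32 and 40 h.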

[2] = qHTS RealTime-Glo MT Cell Viability Assay in HepG2 cells - 16 hour (AID 1224885); note: nearly all actives have a fitted effect of over 50% in size
Outline: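 HepG2 cells were seeded at 600 cells/well together with NanoLuc luciferase and a cell-permeant prosubstrate, preincubated 5 h at 37 C/5% CO2, then pin-dosed with compounds in DMSO. Nonlytic luminescence from viable cells was read at each time point.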

[3] = qHTS RealTime-Glo MT Cell Viability Assay in HEK293 cells - 24 hour (AID 1224886); note: nearly all actives have a fitted effect of over 50% in size
Outline: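 HEK293 cells were seeded at 600 cells/well together with NanoLuc luciferase and cell-permeant prosubstrate, preincubated 5 h at 37 C/5% CO2, then given compound in DMSO by pintool. Luminescence from viable-cell prosubstrate reduction was read repeatedly over 40 h.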

[4] = qHTS RealTime-Glo MT Cell Viability Assay in HEK293 cells - 8 hour (AID 1224887); note: nearly all actives have a fitted effect of over 50% in size
Outline: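 Kinetic, non-lysing viability readout. Seed HEK293 (600/well) with reagent, incubate 5 h at 37 C/5% CO2, pin 23 nL compound in DMSO, incubate at 37 C, read luminescence at 0, 8, 16, 24, 32, 40 h.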

[5] = qHTS assay to identify small molecule antagonists of the estrogen receptor alpha (ER-alpha) signaling pathway using the BG1 cell line in the presence of 0.1 nM 17-beta-estradiol - cell viability counter screen (AID 1259241); note: nearly all actives have a fitted effect of over 40% in size
Outline: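 Cytotoxicity counter-screen: live-cell protease activity measured by fluorescence (30 min reagent step) in the same wells. Cells were VM7Luc4E2 with endogenous ER-alpha and ERE-driven luciferase, treated 22 hr at 37C alongside 0.1 nM 17beta-estradiol final.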

[6] = A CellTox Green Cytotoxicity Assay to monitor cytotoxicity in HEK293 cells - 8 hour (AID 1224884); note: nearly all actives have a fitted effect of over 35% in size
Outline: (§2)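 Real-time, in one plate: 600 HEK293 cells/well with dead-cell DNA dye, pinned compound after 5 h, 37 C incubation over 40 h; viable cells give no appreciable fluorescence.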

[7] = A CellTox Green Cytotoxicity Assay to monitor cytotoxicity in HEK293 cells - 16 hour (AID 1224888); note: nearly all actives have a fitted effect of over 35% in size
Outline: as §2

[8] = A CellTox Green Cytotoxicity Assay to monitor cytotoxicity in HepG2 cells - 8 hour (AID 1224890); note: nearly all actives have a fitted effect of over 45% in size
Outline: as §1
Potency is the fitted concentration of half-maximal effect; tags give direction and shape of the fitted curve.

| SMILES | Potency [1] | Potency [2] | Potency [3] | Potency [4] | Potency [5] | Potency [6] | Potency [7] | Potency [8] |
| --- | --- | --- | --- | --- | --- | --- | --- | --- |
| O=C(CCN1CCC(c2ccccc2)C1)c1ccc2c(c1)OCCO2 (centres undefined) | active: 26.8 µM | inconclusive: 26.8 µM [cytotoxic, single point] | inconclusive: 19 µM [cytotoxic, single point] |  |  |  |  |  |
| CC1(CN2CCC(n3c(=O)[nH]c4ccccc43)CC2)OCc2ccccc2-n2cccc21 (centres undefined) | inconclusive: 26.8 µM [activator, single point] | inconclusive: 21.3 µM [cytotoxic, partial curve] | active: 19 µM | inconclusive: 21.3 µM [cytotoxic, partial curve] |  |  |  |  |
| Cc1c(O)cccc1C(=O)N[C@@H](CSc1ccccc1)[C@H](O)CN1C[C@H]2CCCC[C@H]2C[C@H]1C(=O)NC(C)(C)C | inconclusive: 47.7 µM [activator, single point] and active: 12 µM | inconclusive: 53.5 µM [cytotoxic, partial curve] and inconclusive: 10.7 µM [cytotoxic, partial curve] | active: 21.3 µM and inconclusive: 9.52 µM [cytotoxic, full curve] | inconclusive: 47.7 µM [cytotoxic, partial curve] | active: 8.41 µM and active: 15 µM |  |  |  |
| CC(C)(C)c1cc(C(C)(C)C)c(O)c(C(C)(C)C)c1 | inconclusive: 49 µM [activator, single point] and inconclusive: 49 µM [activator, partial curve, poor fit] |  | inconclusive: 38.9 µM [cytotoxic, partial curve] | inconclusive: 34.7 µM [cytotoxic, partial curve] | inactive | inconclusive: 54.9 µM [activator, single point] | inconclusive: 54.9 µM [activator, single point] and inconclusive: 24.5 µM [activator, partial curve] | inconclusive: 49 µM [activator, partial curve, poor fit] |
